# From PubChem BioAssay AID1645886 (National Center for Advancing Translational Sciences (NCATS), 2021)
# Values joined by “and” are separate entries in the source; they are usually repeats but may differ in a detail not shown here. Equal values may be shown once. About 260 (1.6%) of roughly 16,000 compounds were called active. The shares of active, inactive and inconclusive entries below differ from those in the screen. Calls come from the whole dose curve; as a rule, active = well fitted inhibition curve with a large enough effect; inconclusive = small, poorly fitted or top-dose-only effect; inactive = no such curve, though single readings can be large or run the other way. Where the call is inconclusive, the potency comes from a doubtful curve fit. Some compounds were tested as several samples or in several runs, with calls that do not always agree.
# Molecular target: Rap guanine nucleotide exchange factor 4 (Homo sapiens) (UniProt Q8WZA2)
# UniProt Q8WZA2, sequence (Q8WZA2 whole entry, looked up): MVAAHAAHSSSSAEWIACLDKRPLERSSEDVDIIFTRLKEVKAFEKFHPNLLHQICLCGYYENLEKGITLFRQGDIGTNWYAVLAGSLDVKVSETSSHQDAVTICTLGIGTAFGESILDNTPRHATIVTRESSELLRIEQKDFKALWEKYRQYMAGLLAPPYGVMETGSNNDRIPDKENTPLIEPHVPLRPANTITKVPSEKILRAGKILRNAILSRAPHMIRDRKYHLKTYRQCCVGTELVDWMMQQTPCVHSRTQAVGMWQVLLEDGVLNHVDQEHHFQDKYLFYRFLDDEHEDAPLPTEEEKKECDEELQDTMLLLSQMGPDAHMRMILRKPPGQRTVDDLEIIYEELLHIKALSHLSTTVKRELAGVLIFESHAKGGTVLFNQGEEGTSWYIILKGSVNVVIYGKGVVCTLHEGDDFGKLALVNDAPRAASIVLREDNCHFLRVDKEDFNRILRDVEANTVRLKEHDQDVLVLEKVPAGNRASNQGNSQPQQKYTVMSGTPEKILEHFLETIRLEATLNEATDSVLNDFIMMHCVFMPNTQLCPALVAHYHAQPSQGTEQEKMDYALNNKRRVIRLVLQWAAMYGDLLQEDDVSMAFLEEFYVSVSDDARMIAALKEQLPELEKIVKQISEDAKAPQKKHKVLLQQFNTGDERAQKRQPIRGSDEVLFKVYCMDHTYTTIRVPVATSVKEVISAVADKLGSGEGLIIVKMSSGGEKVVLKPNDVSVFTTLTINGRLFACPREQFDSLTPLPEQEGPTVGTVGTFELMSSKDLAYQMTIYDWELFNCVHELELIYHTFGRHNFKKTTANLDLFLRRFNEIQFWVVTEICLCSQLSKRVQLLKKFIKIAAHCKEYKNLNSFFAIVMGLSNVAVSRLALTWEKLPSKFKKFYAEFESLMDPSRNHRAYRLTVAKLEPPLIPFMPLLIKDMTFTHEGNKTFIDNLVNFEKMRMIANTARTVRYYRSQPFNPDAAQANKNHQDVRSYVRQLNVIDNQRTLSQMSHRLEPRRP
# Experiment: Validation qHTS for antagonist of cAMP-regulated guanine nucleotide exchange factor 4 (EPAC2); note: nearly all actives have a fitted effect of over 40% in size
# Conditions: EPAC2 Rap1B BODIPY-GDP exchange, fluorescence
# How it was run: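 Normalized against a 6.5 mM cAMP agonist control, compounds were tested on 100 nM EPAC2 exchanging Rap1B-bound BODIPY-GDP (250 nM) for 50 uM GDP. Fluorescence drop (ex 480, em 540 nm) was tracked at room temperature over 30 min at 5-min intervals.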
# [1] = activity, negative = inhibition: at 112 µM (top of the series)
# Potency is the fitted concentration of half-maximal effect; tags give direction and shape of the fitted curve.
smiles,measurement,setting,value
CC(C)[C@@H](COc1ccccc1)N1CCN(Cc2ccccc2)CCC1=O,Potency,[1],"inconclusive: 14.1 µM [inhibitor, full curve]"
CCOc1ccc(N=C(C)Nc2ccc(OCC)cc2)cc1,Potency,[1],inactive
CN1CCCC1c1cccnc1 (centres undefined),Potency,[1],inactive
CC(C)c1c(O)ccc2c1CCC1C(C)(C)CCC[C@@]21C (some centres undefined),Potency,[1],"inconclusive: 17.8 µM [inhibitor, partial curve, poor fit]"
COc1cccc(CN2Cc3cccc4c3[C@H](C=CC4)CC2=O)c1,Potency,[1],"inconclusive: 70.8 µM [inhibitor, partial curve, poor fit]"
Cc1noc(C)c1C(=O)N1CCC[C@@]2(CCN(Cc3nccs3)C2)C1,Potency,[1],"inconclusive: 50.1 µM [inhibitor, partial curve, poor fit]"
CCCc1c(OCCCCc2nn[nH]n2)ccc(C(C)=O)c1O,Potency,[1],"active: 20 µM and inconclusive: 8.91 µM [inhibitor, single point] and active: 8.91 µM"
Cc1occc1C(=O)Nc1cccc(-c2nc(CNC(=O)c3ccc(N4CCCCC4)cc3)c(C)o2)c1,Potency,[1],"inconclusive: 56.2 µM [inhibitor, partial curve, poor fit]"
CCOC(=O)C[C@H]1c2cc(F)ccc2S(=O)(=O)N1c1cccc(OC)c1,Potency,[1],"inconclusive: 20 µM [inhibitor, full curve]"
CC(C)(O)C#Cc1ccc(CN2CCc3nnc(CCNC(=O)c4ccco4)n3CC2)cc1,Potency,[1],inactive
Cc1ccc2[nH]nc(C(=O)N3CCOc4ccc(CN5CCc6sccc6C5)cc4C3)c2c1,Potency,[1],inactive
CCS(=O)(=O)N(C)[C@@H]1c2cc(C#N)ccc2OC(C)(C)[C@H]1O,"activity, negative = inhibition",[1],inconclusive: -31.4% [inhibitor]
same,"activity, negative = inhibition",at 112 µM (top of the series),inactive: -18.9%
O=c1cnc2cnc(Nc3ccccc3)nc2n1C[C@H]1CCCO1,Potency,[1],"inconclusive: 15.8 µM [inhibitor, full curve, poor fit]"
NC1=NCCCC1,Potency,[1],"inconclusive: 56.2 µM [inhibitor, partial curve, poor fit]"
Cc1ccccc1-c1nc(NCc2cccs2)c2ccccc2n1,Potency,[1],"inconclusive: 50.1 µM [inhibitor, partial curve]"
COc1ccccc1CN1CC2(CCN(C(=O)c3ccncc3)CC2)C1,Potency,[1],inactive
Nc1ccc(C(=O)NCC(=O)O)cc1,Potency,[1],"inconclusive: 35.5 µM [inhibitor, single point]"
OCCN1CCN(CCCN2c3ccccc3Sc3ccc(Cl)cc32)CC1,Potency,[1],"active: 35.5 µM and inconclusive: 22.4 µM [inhibitor, partial curve, poor fit]"
CN(C)CCc1c[nH]c2ccc(Cn3cncn3)cc12,Potency,[1],inactive
Cc1cnc(-n2ncc(C(=O)NCCc3cccnc3)c2C)nc1-c1cccs1,Potency,[1],"inconclusive: 89.1 µM [inhibitor, single point]"
COc1ccc2[nH]c(C(O)C(O)c3nc4c(OC)c(OC)ccc4[nH]3)nc2c1OC (centres undefined),Potency,[1],inactive
Oc1cc(-c2cccs2)cc2c1OCCN(Cc1cn[nH]c1-c1ccc(Cl)cc1)C2,Potency,[1],"inconclusive: 70.8 µM [inhibitor, partial curve, poor fit]"
Cc1ccnn1CC(=O)N1CCOc2c(cc(-c3csc4ccccc34)cc2OC2CCOC2)C1 (centres undefined),Potency,[1],"inconclusive: 15.8 µM [inhibitor, full curve, poor fit]"
O=C(c1nc2ncccn2n1)N1CCOc2ccc(C(O)C(c3ccccc3)c3ccccc3)cc2C1 (centres undefined),Potency,[1],"inconclusive: 50.1 µM [inhibitor, partial curve]"
O=S1(=O)CCOCCCN1Cc1ccccc1F,Potency,[1],"inconclusive: 89.1 µM [inhibitor, single point]"
O=C1CC(c2ccc(O)cc2)Oc2ccccc21 (centres undefined),Potency,[1],"inconclusive: 8.91 µM [inhibitor, partial curve]"
Cc1csc(-c2coc3cc(O[C@@H]4O[C@H](CO)[C@@H](O)[C@@H](O)[C@H]4O)ccc3c2=O)n1,Potency,[1],"inconclusive: 28.2 µM [inhibitor, partial curve, poor fit]"
O=C(OCc1ccccc1)c1ccccc1,Potency,[1],"inconclusive: 15.8 µM [inhibitor, partial curve]"
CC(=O)Nc1cc(C(=O)N2CC3(C)CC2CC(C)(C)C3)cc2ncn(CCc3ccccn3)c12 (centres undefined),Potency,[1],inactive
CCNc1ncc2nc(-c3cc(F)cc(F)c3)c(=O)n(Cc3cccs3)c2n1,Potency,[1],inactive
COc1ccc(C(C)=O)cc1,Potency,[1],inactive
O=C1N[C@@H](Cc2c[nH]c3ccccc23)C(=O)N[C@H]1Cc1c[nH]c2ccccc12,Potency,[1],inactive
CCOC(=O)C[C@H]1c2cc(C(F)(F)F)ccc2S(=O)(=O)N1Cc1ccccc1,Potency,[1],"inconclusive: 79.4 µM [inhibitor, single point]"
c1ccc2nc(C3=NCCN3)cnc2c1,Potency,[1],"inconclusive: 89.1 µM [inhibitor, partial curve, poor fit]"
CC(C)CN1CCC2(CC1)CCN(C(=O)c1cccn1C)CC2,Potency,[1],inactive
Nc1cc(-c2ccncc2)c[nH]c1=O,Potency,[1],"active: 79.4 µM and inconclusive: 100 µM [inhibitor, single point] and active: 35.5 µM"
Cc1onc(-c2ccccc2)c1C(=O)NCCN1Cc2ccccc2OC(c2ccsc2)C1 (centres undefined),Potency,[1],inactive
CC(=O)OC1CCC2(O)CC1(C)CCC1C2CC1(C)C (centres undefined),Potency,[1],"inconclusive: 56.2 µM [inhibitor, partial curve]"
CS(=O)(=O)Nc1ccc([N+](=O)[O-])cc1OC1CCCCC1,Potency,[1],"inconclusive: 56.2 µM [inhibitor, partial curve]"
O=C(O)CC1CC(c2ccccc2)=NO1 (centres undefined),Potency,[1],inactive
COc1ccc(Oc2ncc3nc(C)c(=O)n(CCc4ccccc4)c3n2)cc1,Potency,[1],inactive
CN(c1ccccc1)S(=O)(=O)c1ccccc1Br,Potency,[1],"inconclusive: 50.1 µM [inhibitor, partial curve, poor fit]"
Cc1c(C(=O)NC2CCCCC2)sc2ncnc(NCCN(C)C)c12,Potency,[1],inactive
COC(=O)C[C@H]1c2ccccc2S(=O)(=O)N1Cc1ccc(OC)cc1,Potency,[1],"inconclusive: 56.2 µM [inhibitor, partial curve, poor fit]"
O=C(CN1Cc2ccccc2OC(c2ccsc2)C1)NCC1OCCc2ccccc21 (centres undefined),Potency,[1],inactive
O=c1c(CCc2ccccc2)nc2cncnc2n1-c1ccccc1,Potency,[1],"inconclusive: 89.1 µM [inhibitor, single point]"
COc1cccc2oc(-c3ccc(O)cc3)cc(=O)c12,Potency,[1],inactive
CC(C)CN(C[C@@H](OP(=O)(O)O)[C@H](Cc1ccccc1)NC(=O)O[C@H]1CCOC1)S(=O)(=O)c1ccc(N)cc1,Potency,[1],inactive
COc1ccc(-n2c(CNC(=O)c3ccccc3C(F)(F)F)nnc2SC)cc1,Potency,[1],inactive
CCC(C)(C)C(=O)O[C@@H]1C[C@@H](C)C=C2C=C[C@H](C)[C@H](CC[C@@H]3C[C@@H](O)CC(=O)O3)[C@H]21,Potency,[1],active: 50.1 µM
CC(=O)c1ccccc1C(=O)NCC1Cc2cccc(-c3cccnc3)c2O1 (centres undefined),Potency,[1],inactive
O=C(c1cncs1)N(Cc1cc2cc3c(cc2nc1N1CCOCC1)CCC3)CC1CCCO1 (centres undefined),Potency,[1],inactive
COc1ccc(CNc2cc(-c3ccccc3Cl)ncn2)c(OC)c1,Potency,[1],"inconclusive: 50.1 µM [inhibitor, partial curve, poor fit]"
COc1cccc(CN2CCC3(CCC(CNC(=O)c4cc(C)nn4C)O3)CC2)c1OC (centres undefined),Potency,[1],inactive
OCC1O[C@H]([S-])[C@H](O)[C@@H](O)[C@@H]1O.[Au+] (some centres undefined),Potency,[1],inactive
O=C(O)CCC/C=C\C[C@@H]1CO[C@H](C(F)(F)F)O[C@@H]1c1ccccc1O,Potency,[1],"inconclusive: 79.4 µM [inhibitor, partial curve, poor fit]"
COC(=O)c1ccc(CN2C[C@H](Sc3ccccn3)C[C@H]2C(=O)N(C)C)cc1,Potency,[1],"inconclusive: 89.1 µM [inhibitor, partial curve, poor fit]"
Cc1oc(-c2ccccc2NC(=O)C2CCC2)nc1CNC(=O)c1ccc(C#CC(C)(C)O)cc1,Potency,[1],"inconclusive: 39.8 µM [inhibitor, single point]"
O=C(c1cccc(F)c1)N1CCC[C@@]2(CCN(c3cccc(-c4ccccc4)c3)C2)C1,Potency,[1],inactive
CC(=O)C[C@H]1c2cc(F)ccc2S(=O)(=O)N1c1ccc(N(C)C)cc1,Potency,[1],"inconclusive: 79.4 µM [inhibitor, single point]"
CCCCCOc1ccc(C2SC(=O)NC2=O)cc1OCC (centres undefined),Potency,[1],"inconclusive: 44.7 µM [inhibitor, partial curve, poor fit]"
CCCCOc1cc(C[C@@H]2CNC(=O)N2)ccc1OC,Potency,[1],"inconclusive: 63.1 µM [inhibitor, partial curve, poor fit]"
CCC1CN(Cc2cn[nH]c2-c2ccc(F)cc2)Cc2cc(OC)ccc2O1 (centres undefined),Potency,[1],"inconclusive: 22.4 µM [inhibitor, full curve, poor fit]"
COC(=O)c1c(OCc2ccccn2)cc(=O)n2c1CCN(Cc1ccc3nsnc3c1)CC2,Potency,[1],inactive
O=C(NCC1(N2CCCCC2)CCCCC1)c1ccc(-n2cc(NC(=O)c3cccnc3)cn2)cc1,Potency,[1],"inconclusive: 1.78 µM [inhibitor, full curve, poor fit]"
O=C(c1ccoc1)N1CCOc2ccc(CN3CCC(Oc4cccnc4)CC3)cc2C1,Potency,[1],"inconclusive: 70.8 µM [inhibitor, partial curve, poor fit]"
COC(=O)C[C@H]1c2cc(C(F)(F)F)ccc2S(=O)(=O)N1Cc1ccccc1OC,Potency,[1],"inconclusive: 1.26 µM [inhibitor, full curve, poor fit]"
COc1cc(-c2noc(C)c2/C=C/c2cccc([N+](=O)[O-])c2)cc(OC)c1OC,Potency,[1],"inconclusive: 31.6 µM [inhibitor, single point]"
